Source: paper PMC4336329 (PLoS ONE, 2015)
Among all 310,000 compounds or so, about 2,200 (0.71%) showed an effect of 50% or more. Effects have a minus sign here. The list shows a part of the results.

Target: human ether-à-go-go-related gene (hERG) potassium channel (human, UniProt Q12809)
Experiment: primary screen, population patch clamp on CHO cells stably expressing hERG

Sequence of human ether-à-go-go-related gene (hERG) potassium channel (Q12809 whole entry, looked up): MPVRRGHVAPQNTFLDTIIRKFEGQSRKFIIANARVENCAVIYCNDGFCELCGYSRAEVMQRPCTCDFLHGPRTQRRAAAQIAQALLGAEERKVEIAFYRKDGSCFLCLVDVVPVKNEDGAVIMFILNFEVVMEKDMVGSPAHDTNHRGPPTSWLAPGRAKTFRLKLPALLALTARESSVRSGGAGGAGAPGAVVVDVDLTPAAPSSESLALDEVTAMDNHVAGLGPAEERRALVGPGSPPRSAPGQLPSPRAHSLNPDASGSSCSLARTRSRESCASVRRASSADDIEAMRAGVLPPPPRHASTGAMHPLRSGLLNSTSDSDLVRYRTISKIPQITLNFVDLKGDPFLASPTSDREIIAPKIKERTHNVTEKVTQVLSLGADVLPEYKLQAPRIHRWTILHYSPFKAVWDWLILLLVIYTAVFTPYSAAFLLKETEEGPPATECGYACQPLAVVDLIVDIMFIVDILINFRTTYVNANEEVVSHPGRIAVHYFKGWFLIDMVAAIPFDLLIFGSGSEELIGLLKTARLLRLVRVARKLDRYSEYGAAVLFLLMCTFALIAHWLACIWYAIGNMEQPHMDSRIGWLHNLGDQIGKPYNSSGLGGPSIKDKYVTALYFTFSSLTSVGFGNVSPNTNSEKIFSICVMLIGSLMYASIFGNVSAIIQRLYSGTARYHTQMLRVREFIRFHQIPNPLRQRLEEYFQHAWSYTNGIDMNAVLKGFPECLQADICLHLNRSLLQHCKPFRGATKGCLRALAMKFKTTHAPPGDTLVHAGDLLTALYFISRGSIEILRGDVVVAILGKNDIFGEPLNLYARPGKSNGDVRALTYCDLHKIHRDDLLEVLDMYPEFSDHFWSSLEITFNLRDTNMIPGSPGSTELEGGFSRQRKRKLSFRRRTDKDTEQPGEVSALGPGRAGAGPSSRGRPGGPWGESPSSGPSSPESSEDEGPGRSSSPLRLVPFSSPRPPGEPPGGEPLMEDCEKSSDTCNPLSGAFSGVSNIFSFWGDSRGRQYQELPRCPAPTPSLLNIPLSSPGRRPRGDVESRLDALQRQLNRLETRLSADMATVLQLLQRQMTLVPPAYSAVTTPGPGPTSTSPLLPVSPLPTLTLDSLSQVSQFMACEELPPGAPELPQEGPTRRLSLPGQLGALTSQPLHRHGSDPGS

Row | Structure (SMILES) | hERG current change (%, negative = inhibition) at 1uM
1 | COc1ccc(S(=O)(=O)N2CCOCC2)cc1NC(=O)Cn1nnc2ccccc2c1=O | -4.67%
2 | Cc1ccc(NC(=O)Nc2cnccn2)cc1 | 7.58%
3 | CCc1ccc(NC(=O)CSc2ccc(-c3ccccn3)nn2)cc1 | 8.33%
4 | Fc1ccc(-c2n[nH]c(=S)c3ccccc23)cc1 | 9.98%
5 | CCN(CC(=O)Nc1ccc2c(c1)OCCO2)C(=O)c1cccc(OCC(C)C)c1 | 4.01%
6 | Cc1ccccc1OCCCC(=O)Nc1ccc2c(c1)OCO2 | 9.25%
7 | CN(Cc1ccccc1)C(=O)COC(=O)c1cc([N+](=O)[O-])ccc1N1CCOCC1 | -3.85%
8 | CCO[C@@H]1OC(C(=O)N2CCN(Cc3ccc4c(c3)OCO4)CC2)=C[C@H](C)[C@H]1CCCO | -0.774%
9 | CC(=O)Nc1cccc(/C(C)=N\NC(=O)c2ccc(Cn3nc([N+](=O)[O-])c(Cl)c3C)o2)c1 | 21.6%
10 | COc1ccc(N=C2SC(C(=O)Nc3ccc4c(c3)OCO4)CC(=O)N2C)cc1 (stereo not shown) | 14.4%
11 | Cc1ccc(NC(=O)CSc2cn[nH]n2)cc1 | 11.5%
12 | O=C(Nc1ccc(NC(=O)c2cccs2)cc1)c1ccccc1 | 14.5%
13 | CCCOc1ccccc1C1CC(=O)Nc2cc3c(cc21)OCO3 (stereo not shown) | 7.2%
14 | O=C(C1CCCCN1S(=O)(=O)c1ccccc1[N+](=O)[O-])N1CCOCC1 (stereo not shown) | 3.29%
15 | Cc1cccc(NC(=S)NCc2ccccc2Cl)c1C | 10.4%
16 | CCCSc1nc2c(c(=O)[nH]c(=O)n2C)n1CCc1ccccc1 | 9.48%
17 | CCCCOc1ccc(C2C(C(=O)c3ccc(C)o3)=C(O)C(=O)N2CC2CCCO2)cc1 (stereo not shown) | 8.28%
18 | CCC(=O)N(Cc1cc(=O)[nH]c2ccccc12)c1ccc(C)cc1C | 3.68%
19 | Cc1cc(NC(=O)Cn2nc(C(F)(F)F)c3c2CCC3)n(-c2ccccc2)n1 | -5.4%
20 | Cc1ccc2c(c1)C(=O)CC1(CCCCCC1)O2 | 14.4%
21 | CCc1c(C)nc2nc(SCc3ccccc3Cl)[nH]n2c1=O | 14.7%
22 | CC(=O)C1=C(O)C(=O)N(c2ccc(S(=O)(=O)Nc3nccs3)cc2)C1c1ccc(F)cc1 (stereo not shown) | 17.1%
23 | O=C1CC2(CCN(C(=O)c3ccccc3Br)CC2)Oc2ccccc21 | -51.4%
24 | COc1ccccc1Nc1ncnc2c1c(C)c(C)n2CCCN(C)C | 6.99%
25 | CCN(CC)CCNC(=O)Cn1cnc2sc(C)c(S(=O)(=O)N3CCC(C)CC3)c2c1=O | 17.3%
26 | O=C(NCc1ccc2c(c1)OCO2)c1ccc(NS(=O)(=O)c2ccc3c(c2)OCCO3)cc1 | 17.7%
27 | S=C(Nc1ccc(Cl)cc1)c1nc2ccccc2s1 | 7.27%
28 | Cc1cc(C)cc(-n2ncc3c2CCCC3NC(=O)CN2CCCCC2=O)c1 (stereo not shown) | 12.2%

Row | Structure (SMILES) | hERG current change (%, negative = inhibition) at 1uM
29 | COc1ccc(N2CCN(C(=O)NCc3cccc(OC)c3)CC2)cc1 | 13.3%
30 | CC1CCCN(C(=O)c2cc3c(=O)n4ccccc4nc3s2)C1 (stereo not shown) | 11.6%
31 | COC(=O)c1nc2n(n1)C(c1ccc([N+](=O)[O-])cc1)C(C(=O)Nc1ccc(Cl)cc1)=C(C)N2 (stereo not shown) | 19.1%
32 | COC(=O)c1ccc(CSc2nc(-c3ccco3)cc(C(F)(F)F)n2)o1 | -17.8%
33 | O=C(CCC(=O)Nc1ccc(F)cc1)N/N=C/c1ccncc1 | 13.2%
34 | COc1ccc(Cc2nnc(NC(=O)CS(=O)(=O)Cc3ccccc3)s2)cc1 | 18.5%
35 | CC(=O)N1CCc2cc(S(=O)(=O)NCCC(=O)Nc3cc(C)cc(C)c3)ccc21 | 10.1%
36 | COc1cccc(C(=O)Nc2nnc(S(=O)(=O)N(C)Cc3ccc(F)cc3)s2)c1 | 9.39%
37 | COc1ccc(C(=O)Nc2ccc(N3CCN(Cc4ccccc4)CC3)cc2)cc1 | 4.76%
38 | CC(C)=CCC/C(C)=C/CC/C(C)=N/O | -5.72%
39 | Cc1ccc(C2/C(=C(/O)c3cnn(-c4ccccc4)c3C)C(=O)C(=O)N2CCCN2CCOCC2)o1 (stereo not shown) | 12%
40 | O=C1C(=O)c2ccccc2C(O)=C1C1CCC(c2ccc(Cl)cc2)CC1 (stereo not shown) | 12.3%
41 | CCn1c(=O)cc(OCC(=O)O)c2ccccc21 | 12.9%
42 | C[C@@H](C(=O)O)[C@@H]1C[C@@]1(C)[C@@H](NC(=O)OCc1ccccc1)c1ccccc1 | 14.7%
43 | COc1ccccc1N1CCN(C2CCN(C(=O)c3ccc(F)cc3)CC2)CC1 | -19.6%
44 | C#CCNC(=O)C1=C[C@H](C)[C@@H](CCCO)[C@H](OCC)O1 | 15.3%
45 | Cc1cc(Br)c2c(c1)/C(=C/C(=O)c1cccs1)C(=O)N2 | 12.4%
46 | Cc1ccccc1C(=O)O/N=C/c1c(N2CCOCC2)n(C)c2ccccc12 | 9.98%
47 | Cc1cc(C)cc(C(=O)NCC(=O)OCC(=O)N2c3ccccc3NC(=O)C2(C)C)c1 | 4.41%
48 | O=C(CO/N=C/c1ccc(Cl)cc1Cl)NNC(=O)c1ccc(Cl)cc1Cl | 10.8%
49 | Br.Nc1nc(-c2ccc(Br)cc2)cs1 | -2.25%
50 | CCCOc1cccc(NC(=O)c2cc(C)oc2C)c1 | -0.18%
51 | CC(C)(C)NS(=O)(=O)c1ccc(NS(C)(=O)=O)cc1 | 0.641%
52 | CCOc1ccc(N(CC)S(=O)(=O)c2cccc3nsnc23)cc1 | 9.82%
53 | CCCCN=C1CC(C)(C)CC(=O)/C1=C(/O)CCCN1C(=O)c2ccccc2C1=O | -7.29%
54 | Cc1ccc(Nc2cc(C)nc(-c3ccccc3O)n2)cc1 | 8.83%
55 | CC(C)(C)C(=O)N1CCN(S(=O)(=O)c2ccc3c(c2)OCCCO3)CC1 | 2.12%
